Experimental data: article PMC4336329 (PLoS ONE, 2015)
The whole screen tested about 310,000 compounds, of which about 14,000 (4.5%) showed an effect of 50% or more. The effect is printed as a negative number. This is one part of the list.

Molecular target: human ether-à-go-go-related gene (hERG) potassium channel (human, UniProt Q12809)
Experiment: primary screen, population patch clamp on CHO cells stably expressing hERG
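Note: peak tail current of the secondary pulse compared with the same well before compound.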

Chain of human ether-à-go-go-related gene (hERG) potassium channel (Q12809 whole entry, looked up): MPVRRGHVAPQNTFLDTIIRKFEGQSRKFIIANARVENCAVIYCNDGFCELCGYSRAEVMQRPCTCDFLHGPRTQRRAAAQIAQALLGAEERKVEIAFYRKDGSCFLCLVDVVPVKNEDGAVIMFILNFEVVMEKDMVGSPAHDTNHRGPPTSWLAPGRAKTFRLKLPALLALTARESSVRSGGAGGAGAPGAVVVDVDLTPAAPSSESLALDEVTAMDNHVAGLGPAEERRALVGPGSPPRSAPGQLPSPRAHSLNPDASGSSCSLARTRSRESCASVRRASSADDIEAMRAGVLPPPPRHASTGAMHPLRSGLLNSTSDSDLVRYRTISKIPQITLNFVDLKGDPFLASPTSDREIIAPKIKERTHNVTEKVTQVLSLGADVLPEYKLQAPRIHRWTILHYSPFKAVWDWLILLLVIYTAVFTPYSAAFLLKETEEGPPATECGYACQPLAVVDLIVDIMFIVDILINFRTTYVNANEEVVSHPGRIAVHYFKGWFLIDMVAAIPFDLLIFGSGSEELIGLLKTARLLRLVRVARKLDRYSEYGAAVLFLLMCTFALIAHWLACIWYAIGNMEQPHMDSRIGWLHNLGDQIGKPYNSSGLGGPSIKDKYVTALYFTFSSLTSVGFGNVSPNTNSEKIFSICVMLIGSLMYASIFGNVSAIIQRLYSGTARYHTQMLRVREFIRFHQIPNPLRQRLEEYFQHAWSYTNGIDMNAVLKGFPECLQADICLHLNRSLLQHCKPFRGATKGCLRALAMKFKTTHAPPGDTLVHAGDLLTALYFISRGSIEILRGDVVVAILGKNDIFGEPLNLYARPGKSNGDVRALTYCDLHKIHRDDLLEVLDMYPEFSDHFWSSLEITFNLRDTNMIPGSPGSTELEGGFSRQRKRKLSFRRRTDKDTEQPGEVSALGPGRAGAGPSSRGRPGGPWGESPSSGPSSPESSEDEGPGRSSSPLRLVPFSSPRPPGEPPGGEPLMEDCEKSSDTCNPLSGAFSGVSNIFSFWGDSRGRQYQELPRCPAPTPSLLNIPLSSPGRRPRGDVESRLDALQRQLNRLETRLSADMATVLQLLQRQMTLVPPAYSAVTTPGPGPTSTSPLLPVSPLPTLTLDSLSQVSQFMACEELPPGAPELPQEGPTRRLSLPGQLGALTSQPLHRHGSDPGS

Row | Compound | hERG current change (%, negative = inhibition) at 10uM [%]
1 | COc1ccc(/C(C)=N/NC(=O)c2ccc3nc[nH]c3c2)cc1 | 11
2 | CCC(CC)NC(=O)CCCSc1nc2ccccc2[nH]1 | 22.3
3 | Cc1cc(OCC(O)CN(CCO)CCO)ccc1Cl.Cl (stereo not shown) | 5.23
4 | CC(C)(C)OC(=O)N[C@@H](Cc1ccccc1)C(=O)N1CCC(C(=O)N[C@@H](Cc2c[nH]c3ccccc23)C(=O)O)CC1 | 21.9
5 | CN1CCC(=O)N(CCSc2ccc(Br)cc2)CC1 | -25.5
6 | Cc1ccccc1NC(=S)NCC(c1cccnc1)N1CCOCC1 (stereo not shown) | -4.07
7 | Cl.Cn1c(SCc2ccccc2)nnc1C1CCCNC1 (stereo not shown) | 11.5
8 | CCOC(=O)N1CCN(C(=O)c2cccc(F)c2)CC1 | -17.9
9 | COC(=O)[C@@H](Cc1c[nH]c2ccccc12)NC(=O)C1CCCN(S(=O)(=O)c2ccc(C)cc2)C1 (stereo partly shown) | -16.8
10 | CCOC(=O)c1ccc(CNC(=O)C2CCCCC2C(=O)OCC(F)(F)F)o1 (stereo not shown) | 3.36
11 | COc1ccccc1C(=O)COC(=O)CNS(=O)(=O)c1ccc(C)cc1 | -9.78
12 | CC(C(=O)Nc1ccc(Cl)cc1Cl)N1CC=C(c2ccccc2)CC1 (stereo not shown) | -28.1
13 | N#Cc1cnn(-c2ccc(F)cc2)c1N | 20.1
14 | CCCCNC(=O)c1cc2cc(CC)ccc2[nH]1 | -5.12
15 | O=C(CC(=O)N/N=C\c1ccccc1)NCCc1ccccc1 | 10
16 | COc1ccc(OC)c2[nH]c(=O)c(CCNC(=O)C(=O)c3c[nH]c4ccccc34)cc12 | 23.4
17 | CCOC(=O)CSc1n[nH]c(NC(=O)c2cccc(C(F)(F)F)c2)n1 | -7.55
18 | CC1(C)C2CCC1(CS(=O)(=O)Nc1ccccc1)C(=O)C2 (stereo not shown) | -5.84
19 | Cc1ccc2c(CN3CCN(S(=O)(=O)c4ccccc4C(F)(F)F)CC3)cc(=O)oc2c1C | -5.49
20 | Cc1ccc(Cc2nnc(SCC(=O)Nc3ccccc3)n(N)c2=O)cc1 | 3.39

Row | Compound | hERG current change (%, negative = inhibition) at 10uM [%]
21 | Cc1cc(N)n2ncc(-c3ccc(Cl)cc3)c2n1 | 1.93
22 | CC(=O)c1ccc(NS(=O)(=O)Cc2ccc(Cl)cc2)cc1 | -9.47
23 | COc1ccc(NC(=O)CN(C)C(=O)c2ccccc2CCc2ccccc2)cc1 | -0.925
24 | CC(C)CC(=O)NC(=S)NNC(=O)c1ccc([N+](=O)[O-])cc1 | -29.5
25 | O=C(CSc1nc(C(F)(F)F)cc(=O)[nH]1)N1CCCCCC1 | 1.22
26 | CCc1ccccc1NC(=O)C1COc2ccccc2O1 (stereo not shown) | 21.7
27 | Cc1ccc(-c2nc(CS(=O)(=O)CC(=O)NC3CCCCCC3)c(C)o2)cc1 | 6.25
28 | O=C(NCc1cccnc1)c1ccc(COc2ccccc2Cl)o1 | -5.89
29 | O=C(NNC(=O)c1cccnc1Cl)c1ccc(F)cc1 | 10.7
30 | NC(=O)N=Nc1c2[nH]c3ccccc3nc-2c2ccccc12 | 4.3
31 | O=Cc1c(NCc2ccccc2F)c2ccccc2[nH]c1=O | 13.8
32 | COc1ccc(NC(=O)/C(C#N)=C/c2ccc(Br)o2)cc1 | -2.22
33 | COCCCC1CCN(Cc2cn[nH]c2-c2cc(OC)c(OC)c(OC)c2)CC1 | -61.8
34 | O=C(NCc1ccc2c(c1)OCO2)c1cc(F)c(F)cc1Cl | 23.9
35 | COC(=O)C1=C(C(=O)OC)[C@@H]2N(Cc3ccccc3)c3ccccc3[C@@]23C[C@@H](C(=O)OC)N(C(=O)c2ccc(Br)cc2)C3=N1 | 15
36 | CC(C)Oc1ccc(C(=O)Nc2ccc(N(C)C)cc2)cc1 | -0.517
37 | COc1ccccc1-c1nnc(SCC(=O)NCc2cccs2)n1N | 0.441
38 | CCOc1cc(OCC)cc(C(=O)Nc2cccc(C(C)=O)c2)c1 | -3.93
39 | Cn1c(SCC(=O)OCc2ccccc2)nnc1-c1ccco1 | 0.0583
40 | Cc1ccc(C2NC(=O)Cc3ccccc32)cc1 (stereo not shown) | -6.09

Row | Compound | hERG current change (%, negative = inhibition) at 10uM [%]
41 | CC(C(=O)Nc1cc([N+](=O)[O-])ccc1Cl)N1CCN(c2ccccc2)CC1 (stereo not shown) | 12.3
42 | O=C(NCc1ccccc1Br)c1cccc2c1C(=O)c1ccc(N3CCOCC3)cc1S2(=O)=O | 10.2
43 | COc1ccc(CCNC(=O)CSCc2ccc(Cl)cc2)cc1OC | -25.8
44 | CCOC(=O)C1(CCCc2ccccc2)CCN(S(C)(=O)=O)CC1 | -8.15
45 | CCCCc1ccc(NC(=O)CSc2nc(=O)n(CCN(CC)CC)c3c2CCC3)cc1 | -65.8
46 | Cc1cc(-c2cn3ccccc3n2)c(C)n1-c1ccccc1 | -21.6
47 | CC(C)C(=O)N1CCN(c2ccccc2NC(=S)NC(=O)c2ccco2)CC1 | 8.51
48 | CCn1c(=O)cc(SCC(=O)N2CCCCC2)c2ccccc21 | -7.44
49 | N#Cc1c(-c2ccccc2)nc(SCc2cccc(C(F)(F)F)c2)[nH]c1=O | 20
50 | O=C(COC(=O)C1COc2ccccc2O1)NC(=O)NC1CCCC1 (stereo not shown) | 14
51 | Cn1c(CNC(=O)Nc2ccccc2Cl)nnc1SCc1ccccc1 | -19.2
52 | CCc1cc(=O)oc2cc(C)cc(O)c12 | 4.75
53 | C(=N\n1cnnc1)/c1cccs1 | 1.37
54 | CN(C)CCOCCP(=O)(c1ccccc1)c1ccccc1 | -7.21
55 | CC1SCC(NC(=O)c2cccc(Cl)c2)CS1 (stereo not shown) | -33.8
56 | O=C(CCn1nc(-c2ccccc2)ccc1=O)NCCCN1CCCCCC1 | -73
57 | Cc1cc(-c2n[nH]c(=S)n2/N=C/C(Cl)=C/c2ccccc2)n[nH]1 | 23.7
58 | Cc1cc(C)n(-c2ccc(C(F)(F)F)cc2[N+](=O)[O-])n1 | 1.78
